Changes are numbered by the printed parent chain; changes in the protein carry UniProt numbers. The list shows a part of the results.
B1: CAAUGCC (DNA:RNA)
RNA: GGGAGACCGGAAUUCAGAUUGUCCCAAUGCCUUAAAUCCCGUCGUAGCCACCA
DNA 1: CAATCTGAATTCCGGTCTCCC
DNA 2: TGGTGGCTACGACGGGATT
B2: AAAAGGU (DNA:RNA)
RNA: B1 RNA with C25A, U28A, C30G, C31U
DNA 1: CAATCTGAATTCCGGTCTCCC
DNA 2: TGGTGGCTACGACGGGATT
B3: AUCUUUA (DNA:RNA)
RNA: B1 RNA with C25A, A26U, A27C, G29U, C30U, C31A
DNA 1: CAATCTGAATTCCGGTCTCCC
DNA 2: TGGTGGCTACGACGGGATT
B4: CCAGCUC (DNA:RNA)
RNA: B1 RNA with A26C, U28G, G29C, C30U
DNA 1: CAATCTGAATTCCGGTCTCCC
DNA 2: TGGTGGCTACGACGGGATT
B5: AGACUAA (DNA:RNA)
RNA: B1 RNA with C25A, A26G, U28C, G29U, C30A, C31A
DNA 1: CAATCTGAATTCCGGTCTCCC
DNA 2: TGGTGGCTACGACGGGATT
B6: UCUACAC (DNA:RNA)
RNA: B1 RNA with C25U, A26C, A27U, U28A, G29C, C30A
DNA 1: CAATCTGAATTCCGGTCTCCC
DNA 2: TGGTGGCTACGACGGGATT
B7: UGGACUC (DNA:RNA)
RNA: B1 RNA with C25U, A26G, A27G, U28A, G29C, C30U
DNA 1: CAATCTGAATTCCGGTCTCCC
DNA 2: TGGTGGCTACGACGGGATT
B8: CUGAUUA (DNA:RNA)
RNA: B1 RNA with A26U, A27G, U28A, G29U, C30U, C31A
DNA 1: CAATCTGAATTCCGGTCTCCC
DNA 2: TGGTGGCTACGACGGGATT
B9: GGUGGAA (DNA:RNA)
RNA: B1 RNA with C25G, A26G, A27U, U28G, C30A, C31A
DNA 1: CAATCTGAATTCCGGTCTCCC
DNA 2: TGGTGGCTACGACGGGATT
B10: CAAGGCC (DNA:RNA)
RNA: B1 RNA with U28G
DNA 1: CAATCTGAATTCCGGTCTCCC
DNA 2: TGGTGGCTACGACGGGATT
B11: AUCGUGA (DNA:RNA)
RNA: GGGAGACCGGAAUUCAGAUUGUCCAUCGUGAUUAAAUCCCGUCGUAGCCACCA
DNA 1: CAATCTGAATTCCGGTCTCCC
DNA 2: TGGTGGCTACGACGGGATT
B12: GAUUAUU (DNA:RNA)
RNA: B1 RNA with C25G, A27U, G29A, C30U, C31U
DNA 1: CAATCTGAATTCCGGTCTCCC
DNA 2: TGGTGGCTACGACGGGATT
B13: GAAAAUC (DNA:RNA)
RNA: B1 RNA with C25G, U28A, G29A, C30U
DNA 1: CAATCTGAATTCCGGTCTCCC
DNA 2: TGGTGGCTACGACGGGATT
B14: GACAUUC (DNA:RNA)
RNA: B11 RNA with A25G, U26A, G28A, G30U, A31C
DNA 1: CAATCTGAATTCCGGTCTCCC
DNA 2: TGGTGGCTACGACGGGATT
B15: CUAUGUU (DNA:RNA)
RNA: B1 RNA with A26U, C30U, C31U
DNA 1: CAATCTGAATTCCGGTCTCCC
DNA 2: TGGTGGCTACGACGGGATT
B16: GGCCAAG (DNA:RNA)
RNA: B11 RNA with A25G, U26G, G28C, U29A, G30A, A31G
DNA 1: CAATCTGAATTCCGGTCTCCC
DNA 2: TGGTGGCTACGACGGGATT
B17: CGACUGU (DNA:RNA)
RNA: B11 RNA with A25C, U26G, C27A, G28C, A31U
DNA 1: CAATCTGAATTCCGGTCTCCC
DNA 2: TGGTGGCTACGACGGGATT
B18: GGGAUUG (DNA:RNA)
RNA: B11 RNA with A25G, U26G, C27G, G28A, G30U, A31G
DNA 1: CAATCTGAATTCCGGTCTCCC
DNA 2: TGGTGGCTACGACGGGATT
B19: GAGAGAU (DNA:RNA)
RNA: B1 RNA with C25G, A27G, U28A, C30A, C31U
DNA 1: CAATCTGAATTCCGGTCTCCC
DNA 2: TGGTGGCTACGACGGGATT
B20: ACGCUCC (DNA:RNA)
RNA: B11 RNA with U26C, C27G, G28C, G30C, A31C
DNA 1: CAATCTGAATTCCGGTCTCCC
DNA 2: TGGTGGCTACGACGGGATT

Target: T1, RBFOX1 RRM RbFoxmut (Fox-RRM*) (Homo sapiens, UniProt Q9NWB1 109-208, R118D;E147R;N151S;E152T)
T1 sequence: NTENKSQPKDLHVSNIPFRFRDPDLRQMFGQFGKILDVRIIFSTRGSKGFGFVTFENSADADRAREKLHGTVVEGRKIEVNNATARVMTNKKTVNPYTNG
Assay: EMSA; HiTS-Eq, 1 nM pool, 10 min; buffer printed only for the single-RNA assays: 10 mM Tris pH 7.5, 150 mM NaCl, 3.4 mM EDTA, 0.001% NP-40, 30 C
Settings: tags: His6 N-terminal (pET28a); label: 5' 32P
Summary of the method: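 Purified RbFox RRM (wild type or mutant) was equilibrated for 10 min in 50 µL with 1 nM of a 5′-radiolabelled pool of RNA with 7 randomized nucleotides, its flanks annealed to DNA oligonucleotides, across increasing protein concentrations. Free RNA was separated by 8% native PAGE, excised, reverse-transcribed, PCR-barcoded and sequenced on an Illumina HiSeq 2500. Relative association constants came from read-count changes of each variant against the control reaction, normalised to the cognate motif.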

Binder | binding signal
B1 | 0.156 KA relative to UGCAUGU
B2 | 0.0808 KA relative to UGCAUGU
B3 | 0.131 KA relative to UGCAUGU
B4 | 0.0912 KA relative to UGCAUGU
B5 | 0.111 KA relative to UGCAUGU
B6 | 0.0553 KA relative to UGCAUGU
B7 | 0.0856 KA relative to UGCAUGU
B8 | 0.0998 KA relative to UGCAUGU
B9 | 0.0957 KA relative to UGCAUGU
B10 | 0.146 KA relative to UGCAUGU
B11 | 0.0998 KA relative to UGCAUGU
B12 | 0.0889 KA relative to UGCAUGU
B13 | 0.0595 KA relative to UGCAUGU
B14 | 0.0498 KA relative to UGCAUGU
B15 | 0.132 KA relative to UGCAUGU
B16 | 0.0807 KA relative to UGCAUGU
B17 | 0.204 KA relative to UGCAUGU
B18 | 0.282 KA relative to UGCAUGU
B19 | 0.0959 KA relative to UGCAUGU
B20 | 0.0675 KA relative to UGCAUGU
